Whole data set: some 110,000 compounds, median “z-score” near -0.1, cut for the highest 2% near 2. The list shows a part of the results. Activity calls are given as the source filed them.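 How the source made its calls: active means z-score in the third read window above 3 or below -3; inactive means the rest.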

This test addresses Metabotropic glutamate receptor 8 (Rattus norvegicus) (UniProt P70579). Description: mGluR8 Gi/Go-coupled signaling modulation – cell-based, rat, thallium flux, HTS, primary screen (AID 488969). As to conditions: HEK293 rat mGluR8, GIRK (G protein-gated inwardly rectifying potassium channel) thallium flux, FluoZin2; at 10 µM; stronger effect = higher value; submaximal glutamate (EC20) added with thallium.
Sequence of UniProt P70579 (P70579 whole entry, looked up): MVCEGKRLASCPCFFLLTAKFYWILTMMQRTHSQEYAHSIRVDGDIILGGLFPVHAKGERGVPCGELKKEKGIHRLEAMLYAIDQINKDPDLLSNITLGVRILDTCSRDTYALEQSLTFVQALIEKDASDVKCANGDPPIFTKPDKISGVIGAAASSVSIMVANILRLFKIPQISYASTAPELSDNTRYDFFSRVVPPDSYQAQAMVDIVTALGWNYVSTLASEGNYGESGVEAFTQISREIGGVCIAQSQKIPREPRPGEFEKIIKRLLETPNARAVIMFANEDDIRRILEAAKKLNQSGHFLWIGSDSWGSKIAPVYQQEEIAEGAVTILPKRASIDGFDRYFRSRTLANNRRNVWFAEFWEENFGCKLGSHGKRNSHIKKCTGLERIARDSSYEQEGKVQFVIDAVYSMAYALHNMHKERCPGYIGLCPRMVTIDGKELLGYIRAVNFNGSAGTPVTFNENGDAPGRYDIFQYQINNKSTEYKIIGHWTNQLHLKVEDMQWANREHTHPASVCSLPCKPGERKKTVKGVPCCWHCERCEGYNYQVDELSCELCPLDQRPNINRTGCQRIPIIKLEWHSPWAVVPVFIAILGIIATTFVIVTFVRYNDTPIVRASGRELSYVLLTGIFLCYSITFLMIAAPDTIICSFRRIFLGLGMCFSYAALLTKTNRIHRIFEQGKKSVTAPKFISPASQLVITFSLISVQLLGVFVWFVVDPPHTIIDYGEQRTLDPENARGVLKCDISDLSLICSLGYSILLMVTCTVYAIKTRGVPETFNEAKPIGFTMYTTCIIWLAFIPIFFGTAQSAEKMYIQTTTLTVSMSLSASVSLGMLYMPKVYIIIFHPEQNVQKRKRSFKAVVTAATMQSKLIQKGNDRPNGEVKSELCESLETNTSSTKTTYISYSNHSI
Regarding `Oc1ccc(Cl)cc1C1=NCCNC(C(F)(F)C(F)F)=C1`, the z-score was -0.383.

Turning to `COc1ccc(NC(=S)N/C(=N/CS(=O)(=O)c2ccccc2)c2ccccc2)cc1`, the z-score is -0.694.

For the molecule `Cc1ncc(S(=O)(=O)c2ccccc2)c(-c2ccccc2)n1`, the z-score was 1.19.

In turn, `O=C1CC(c2ccco2)CC(O)=C1C=NCC1CCNCC1` (configuration not stated) had a z-score of -0.0532.

`COc1ccc(NS(=O)(=O)c2ccc(N3CCOCC3)c(NC(=O)c3ccc(F)cc3)c2)cc1` returned a z-score of 0.163.

In turn, `Cc1cccc(CSCCNC(=O)CSCc2ccc([N+](=O)[O-])cc2)c1` showed a z-score of 0.0119.

Regarding `CCOc1cc(S(=O)(=O)N(CC)CC)ccc1Br`, the z-score worked out at 0.61.

Consider `COc1cccc(CNC(=O)C(=O)NCC2CCCO2)c1` (configuration not stated), for which the z-score came to 0.092.

Consider `O=C(Nc1ccccc1)/C(=C/c1ccc([N+](=O)[O-])cc1)NC(=O)c1ccccc1`, for which the z-score was found to be 0.0934.

For `Cc1cccc(-c2nsc(SCC(=O)N3CCCC3)n2)c1`, the z-score stood at 0.846.

For the molecule `O=C(Cn1ncc2c(=O)oc3ccccc3c21)NCCCN1CCCC1=O`, the z-score worked out at 0.0795.

On to `CCNC(=O)COC(=O)c1cc(-c2ccc(OC)cc2)nc2ccccc12`, for which the z-score was -0.186.

In the case of `O=C(COC(=O)c1cccnc1Cl)c1ccccc1`, the z-score was -0.0785.

On to `COC(=O)C(Cc1ccc(OC(=O)c2ccccc2C)cc1)N1Cc2ccccc2C1=O` (configuration not stated), for which the z-score was -0.569.

As to `Cc1cc(C(F)F)n2nc(C(=O)Nc3cccnc3Cl)nc2n1`, the z-score was -0.918.

In turn, `COc1ccc(NC(=S)NN2C(C)CCCC2C)cc1` (configuration not stated) came in with a z-score of -0.209.

For the molecule `CCOCCCNC(=S)NNC(=O)CCn1nc(C)c(Br)c1C`, the z-score worked out at 0.0454.

In the case of `O=C(O)/C=C\C(=O)Nc1ccccc1C(=O)N1CCN(c2ccc(Cl)cc2)CC1`, the z-score was -0.192.

`O=C(C=C1SCCS1)/C=C/c1ccco1` returned a z-score of 0.393.

With `Cc1cnc(C(=O)Nc2ccc(F)cc2)cn1`, the z-score was determined as 0.237.

In turn, `COC(=O)Cn1c(CN2CCN(c3ccc(F)cc3)CC2)nc2c1c(=O)n(C)c(=O)n2C` registered a z-score of 0.104.

`O=C(c1cccs1)n1nc(-c2ccco2)nc1SCc1ccccc1` had a z-score of -0.335.

For `CC1CCCN(c2ccc(C(=O)Nc3ccc4c(c3)OCO4)cc2[N+](=O)[O-])C1` (configuration not stated), the z-score was -0.321.

`CCN(CC)S(=O)(=O)c1ccc(N2CCCC2)c(NS(=O)(=O)c2ccc([N+](=O)[O-])cc2)c1` yielded a z-score of -0.268.

Take `COc1ccc(-n2cc(C(=O)c3cc4ccccc4oc3=O)c(C(C)=O)n2)cc1`: the z-score was found to be 0.0849.

`CC1COC2C(O1)N(S(C)(=O)=O)CCN2S(C)(=O)=O` (configuration not stated): the z-score is 0.224.

`Cc1nn(-c2ccccc2)c2c1C1(C(=O)N(C)c3ccccc31)N(c1ccccc1)C(=O)N2` (configuration not stated) registered a z-score of 1.25.

On to `CNC(=O)N(C1=NCC(C)(C)S1)c1ccc(F)c(Cl)c1`, for which the z-score is -0.111.

With `CCCCCCC(=O)NNC(=O)CC(=O)Nc1ccccc1C(=O)O`, the z-score was -0.284.

In turn, `C/C(=N\NC(=O)CSc1nc2nc(C)cc(C)n2n1)c1ccccc1` yielded a z-score of 0.413.

Regarding `COc1ccc(-c2nc(S(=O)(=O)c3ccc(C)cc3)c(N3CCCC3)o2)cc1`, the z-score is -0.0607.

In the case of `O=C(c1cc2ccccc2o1)N1CCN=C1SCc1cccnc1`, the z-score was -0.23.

As to `COCc1cc(C)nc(SCC(=O)N2CCC(C)CC2)c1C#N`, the z-score came to 0.67.

`COc1ccc(S(=O)(=O)N(C)CC(=O)Nc2c(F)cccc2F)cc1` displayed a z-score of -0.0769.

As to `Cn1c(/C=N/n2cnnc2)nc2ccccc21`, the z-score was determined as 0.176.

Take `Cc1nc(N2CCN(c3ccccc3)CC2)[nH]c(=O)c1Cc1cccc2ccccc12`: the z-score is -0.228.

`CCOC(=O)c1ccc(Oc2nc(NC)nc(OC)n2)cc1` displayed a z-score of -0.524.

Take `O=C(O)c1ccccc1SCc1cn2ccccc2n1`: the z-score turned out to be 0.0786.

With `COc1ccccc1CC(=O)Nc1ccc(-c2noc(COc3cccc(C)c3C)n2)cc1`, the z-score was -0.394.

Molecule `COc1ccc(S(=O)(=O)N2CCSC2)cc1C` displayed a z-score of -0.243.

`Nc1c(-c2ccc(F)cc2)cnn1C1CCS(=O)(=O)C1` (configuration not stated) displayed a z-score of -0.0127.

Molecule `CN(C)C(=O)c1ccc2c(c1[N+](=O)[O-])C(=O)c1ccccc1C2=O` registered a z-score of 0.185.

In turn, `N#Cc1c(NC(=O)CSc2ncn[nH]2)sc2c1CCCC2` gave a z-score of -0.387.

`CCC(=O)N1CCc2cc(S(=O)(=O)Nc3ccc4c(c3)OCCO4)ccc21` came in with a z-score of -0.208.

`COc1ccc(-c2nnc3c4ccccc4c(C)nn23)cc1` had a z-score of -0.545.

With `CCOC(=O)C1CCCN(c2c(N3CCOCC3)c(=O)c2=O)C1` (configuration not stated), the z-score was determined as 0.314.

`O=C(COc1ccc(S(=O)(=O)NC2CCCCC2)cc1)NCc1cccnc1`: the z-score was -0.589.

`COC(=O)CN(Cc1ccccc1)S(=O)(=O)c1ccc(OC)c(OC)c1`: the z-score is -0.621.

In the case of `COc1cccc(C(=O)N/N=C/c2ccc(Oc3ccc([N+](=O)[O-])cn3)c(OC)c2)c1`, the z-score was determined as 0.235.

As for `CC(=O)Oc1cccc(N2C(=O)c3ccccc3C2=O)c1`, the z-score turned out to be 0.0143.

For the molecule `CCCc1[nH]nc2c1C1(C(=O)N(CC)c3ccccc31)C(C#N)=C(N)O2` (configuration not stated), the z-score is -0.625.

For `CCOc1ccc2nc(NC(=O)C(CC)Sc3nc(C)cc(=O)[nH]3)sc2c1` (configuration not stated), the z-score was active: -5.76.

For `COCC(=O)n1cc(C(=O)OC)c2ccccc21`, the z-score turned out to be 0.219.

In turn, `CCOC(=O)c1[nH]c2ccc(C)cc2c1N=CN(CC)CC` had a z-score of 0.273.

In the case of `CCCc1ccc(-c2cc(NC(=O)CSc3nnc(N)s3)n(-c3ccccc3)n2)cc1`, the z-score was found to be 0.28.

Turning to `COc1ccc(N=C2C(=Nc3ccc(OC)cc3)N(c3ccccc3)C(=S)N2C(=O)c2ccc(Cl)cc2)cc1`, the z-score amounted to 0.0583.

With `CCOC(=O)c1c(C)nc2sc3c(=O)n(-c4ccc(OC)cc4)nnc3c2c1-c1ccc(OC)cc1`, the z-score came to 0.0499.

For `CC(=O)OC[C@H]1O[C@@H](Sc2cccc3cccnc23)[C@H](OC(C)=O)[C@@H](OC(C)=O)[C@@H]1OC(C)=O`, the z-score was -0.316.

In turn, `COC(=O)[C@@H]1C(c2ccccc2)(c2ccccc2)[C@@]1(C)C(=O)OC` returned a z-score of -0.368.

`CCOCCCn1c(SCC(=O)NCc2ccco2)nc2c(sc3ccccc32)c1=O` yielded a z-score of -0.0769.

For the molecule `Cc1ccc2[nH]c(C)c(/C=N/Nc3nc4ccccc4s3)c2c1`, the z-score was -0.0958.

For `CN(CC(=O)N1CCN(C2CCCCC2)CC1)S(=O)(=O)c1cccc2nsnc12`, the z-score is -0.124.

As to `CC(C)(C)NC(=O)COc1ccc(-c2ccccc2)cc1`, the z-score is -0.142.

For the molecule `CC(=O)/C(=N/Nc1cccc(Cl)c1)Sc1nnc(C(O)c2ccccc2)n1-c1ccccc1` (configuration not stated), the z-score was -0.12.

Molecule `COc1cccc(/C=N/NC(=O)CC2C(=O)NN=C2C)c1OC` (configuration not stated) had a z-score of 0.0513.

`Cc1c(NC(=O)c2cc3ccccc3o2)c(=O)n(-c2ccccc2)n1C` registered a z-score of -0.138.

On to `CCCCc1ccc(CC2S/C(=C(\C#N)C(=O)N3CCOCC3)N(c3ccccc3)C2=O)cc1` (configuration not stated), for which the z-score was found to be 1.87.

The values above are taken from PubChem BioAssay AID488969 (Vanderbilt High Throughput Screening Facility, 2010).
